Laboratory results taken from patent US20080075796A1, “Compositions and Methods for Controlling Insects” (TyraTech, Inc., priority 2003, published 2008).
Several values for one entry are separate records, joined by “and”; a condition that tells them apart may be missing. Identical values can stand only once.

Test system: Carpenter ants
Experiment: Repellent effect on carpenter ants (treated filter paper)
Format: in vivo
Protocol: Adult insect are randomly selected for testing the repellent effect of compositions and are not individually marked. About 5 insects per replicate are used. About 3 replicates are used for each treatment. Untreated control tests are included with only solvent (acetone) application to an equal sized population/replications, held under identical conditions. A filter paper (about 80 cm^2) is treated with the composition (about 100 mg in […] acetone). After about 3 min of air drying, the filter paper is placed in a dish and repellency against insects is performed. Insects are released to the dish, one insect at a time at the far end of the dish. Using one or more stopwatches, the time spent on either the filter paper or the untreated surface of the dish is recorded up to about 300 seconds. Repellency ratio (RR) is calculated as follows: RR=[(time on control surface−time on treated surface)/total time of test]. If RR>0 then the composition is considered to have a repellant effect, that is to say, an effect, wherein more insects are repelled away from treated surface than the control surface; if RR<0 then the composition is considered not to have a repellant effect.
The repellent effect of various plant essential oils is tested by treating a filter paper with the test oils. After about five minutes at room temperature, the paper is placed in a dish and ants are introduced one at a time. The repellency is determined as described above, in Example 14. Oils are tested alone. Additionally, oils are mixed to form compositions, which are then tested.

[1] = Day 0, time on treated surface of up to about 300 seconds

| SMILES | Repellency %, R % (Day 0) | sec. on T surface [1] | sec. on T surface (Day 1) | Repellency %, R % (Day 1) |
| --- | --- | --- | --- | --- |
| Cc1ccc(C(C)C)c(O)c1 [thymol] | 58.3% | 62.0 s and 62 s | 104.4 s | – |
| C=CCc1ccc(O)c(OC)c1 [eugenol] | 48.8% | 76.8 s | 139.0 s | 7.3% |
